The other results are listed elsewhere or left out. Further columns of the screen follow, without active or inactive calls.
Molecular target: GTPase KRas (Homo sapiens) (UniProt P01116)
Assay: Cysteine mutants labelled by reactive fragments (mass read-out) (AID 2202238)
Parameters: protein at 5 µM with 500 µM competing thiol for 1.5 h
Settings: KRAS G12D cysteine mutants, disulfide tethering, MALDI-TOF labeling, stronger effect = higher value, fragment at 500 µM
[1] = measured here: G75C mutant labeling
[2] = measured here: H94C mutant labeling
[3] = measured here: I36C mutant labeling
[4] = measured here: L120C mutant labeling
[5] = measured here: M67C mutant labeling
[6] = measured here: M72C mutant labeling
[7] = measured here: N86C mutant labeling
[8] = measured here: P121C mutant labeling
[9] = measured here: S122C mutant labeling
[10] = measured here: S136C mutant labeling
[11] = measured here: G60C mutant labeling
[12] = measured here: N26C mutant labeling

UniProt P01116, sequence (P01116 whole entry, looked up, the tested form may be a part): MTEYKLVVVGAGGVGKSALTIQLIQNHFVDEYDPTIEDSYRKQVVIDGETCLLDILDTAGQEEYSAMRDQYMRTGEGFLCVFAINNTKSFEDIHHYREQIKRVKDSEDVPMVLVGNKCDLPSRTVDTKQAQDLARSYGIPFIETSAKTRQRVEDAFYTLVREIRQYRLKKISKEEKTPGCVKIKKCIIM

SMILES	percent labeling [1]	percent labeling [2]	percent labeling [3]	percent labeling [4]	percent labeling [5]	percent labeling [6]	percent labeling [7]	percent labeling [8]	percent labeling [9]	percent labeling [10]	percent labeling [11]	percent labeling [12]
CCOc1ccc(NC(=O)CCS)cc1CN(CC)CC	12%	39.5%	51.2%	40.1%	47.5%	37.7%	31.8%	31.4%	27.4%	60%		
COc1ccc(C(=O)NCCS)nc1	44.3%	47%	34%	51.1%	39.7%	69%	41.7%	47.1%	41.6%	51.6%	52%	50.7%
COc1cnc(C(F)(F)F)cc1C(=O)NCCS	24.4%	46.1%	25.9%	27.6%	27.1%	43.4%	23.5%	23.1%	27.1%	43.5%	43.5%	40.4%
Cc1nn(CC(C)C)c(C)c1CCC(=O)NCCS	14.6%	33.8%	23.1%	27.6%	31.5%	15.4%	24.1%	32%	32.5%	40.1%	36.7%	35.9%
O=C(CCS)Nc1ccc(OCC2CC2)cc1F	14.4%	21%	26.4%	23.7%	20.4%	35%	14.2%	19.9%	20.1%	37.8%		
O=C(NCCS)C1CCN(C(=O)OCc2ccccc2)CC1	12.5%	29%	24.1%	18.9%	48.2%	24.4%	19%	20.3%	19.4%	34.1%	33.7%	38.2%
O=C(NCCS)[C@@H]1C[C@H]1c1ccccn1	22.4%	34.9%	31.3%	33.2%	55.3%	29.1%	29.2%	42.8%	32.9%	70.2%	46.5%	46%
O=C(NCCS)c1ccc(COc2ccccc2)cc1	6.2%	10.8%	10.7%	15.9%	14.9%	28.4%	11.9%	8.8%	10.6%	15.1%	11.7%	19.9%
O=C(CN1C(=O)COc2ccc(Cl)cc21)NCCS	25.7%	31.4%	23.9%	34.4%	28.2%	49.5%	21.3%	23.8%	20.4%	30.9%	45.1%	33.7%
O=C(CCS)NCc1ccc(C(F)F)nc1	10.7%	25.5%	40.2%	25%	26.5%	19.5%	20.7%	28.7%	30.8%	44.8%		
COc1ccc(OC)c(-c2cc(C(=O)NCCS)[nH]n2)c1	9.2%	12.2%	9.2%	11.5%	10.8%	32.2%	11.7%	8.8%	10.2%	13.9%	19.7%	28.3%
Cc1csc(=O)n1CC(=O)NCCS	17.7%	29.9%	29.8%	42.6%	26.9%	21.3%	32.5%	31.6%	35.1%	38.1%	30.2%	35.5%
O=C(CN1C(=O)C2CC=CCC2C1=O)NCCS (stereo not drawn)	6.9%	27.8%	20.7%	42.3%	21.5%	12.9%	22.5%	29%	29.2%	32.9%	23.3%	28.6%
Cc1nnc(N2CCN(C(=O)CCS)CC2)s1	11.3%	26%	40.1%	27.2%	36.5%	21.4%	37.2%	30.8%	29.8%	61.3%		
O=C(CCS)NCC1(c2ccncc2F)CC1	13.5%	28.6%	47.4%	36.8%	42%	32%	28.6%	37.6%	40%	53.3%		
O=C(NCCS)c1cnc2nc[nH]c2c1	30.3%	37.3%	32.8%	36.5%	38.9%	42.3%	33.4%	30.4%	39.8%	50.2%	38.1%	50.1%
CN(CC(=O)NCCS)C(=O)c1cnn(C)c1-n1cccc1	12.4%	31.7%	25.6%	33.2%	29.2%	13.9%	22.8%	30.5%	27.5%	44.2%	30.2%	35%
Cc1nc2c(s1)CCCC2CNC(=O)CCS (stereo not drawn)	16.6%	44.1%	45.1%	34.6%	42%	32.1%	22.9%	36.4%	31.2%	67.5%		
N#Cc1ccc(N2CCC(C(=O)NCCS)CC2)nc1	12%	34.2%	37%	35.8%	29.3%	32.2%	24.2%	28.1%	23.8%	47.3%	44.4%	43.7%
O=C(CCS)N1CCCC1c1c(F)cccc1F (stereo not drawn)	24.1%	55.4%	34.2%	39%	43%	42.4%	34.4%	36.8%	34.2%	74.1%		
O=C(CCS)NC1CCCc2c1cnn2-c1ccccc1F (stereo not drawn)	16.3%	37.5%	37.2%	33.7%	43.7%	30.4%	22.2%	32.1%	28.2%	53.3%		
O=C(NCCS)c1cccnc1Cl	29.7%	42.1%	33.9%	44.1%	39.9%	36.3%	40.2%	38.3%	41.2%	49.4%	41.4%	43.9%
O=C(CCS)NC1(c2ccc(F)cn2)CC1	14.2%	34.6%	35.7%	30.6%	33.5%	29.6%	33.4%	33.4%	38.4%	48.3%		
